# Some of the results follow. Further columns of the screen follow, without active or inactive calls. For part of these data: The list favours compounds with an active or inconclusive main result. Words in brackets tell the shape of the fitted curve; partial curves, single points and poor fits give uncertain potencies.
# How the values were obtained:
# [1] = biological target: Nicotinamide N-methyltransferase (Homo sapiens) (UniProt P40261); assay: Confirmatory Screen for Target Class Profiling of Small Molecule Inhibitors of Methyltransferases (AID 1745852); conditions: MTase-Glo luminescence, SAH detection, recombinant enzyme; measured here: NNMT inhibition potency;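 note: inhibitor potency for blocking SAH production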
# Sequence of UniProt P40261 (P40261 whole entry, looked up): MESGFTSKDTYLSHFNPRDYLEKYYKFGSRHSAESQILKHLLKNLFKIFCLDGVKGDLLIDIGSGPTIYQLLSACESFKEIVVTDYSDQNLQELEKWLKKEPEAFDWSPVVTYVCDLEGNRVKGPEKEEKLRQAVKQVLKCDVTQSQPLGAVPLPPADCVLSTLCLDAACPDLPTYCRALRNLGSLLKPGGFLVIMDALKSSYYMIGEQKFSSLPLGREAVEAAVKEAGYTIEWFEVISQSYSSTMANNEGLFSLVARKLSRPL
# [2] = biological target: Phenylethanolamine N-methyltransferase (Homo sapiens) (UniProt P11086); assay: as above; conditions: MTase-Glo luminescence, SAH detection, recombinant enzyme; measured here: PNMT inhibition potency
# Sequence of UniProt P11086 (P11086 whole entry, looked up): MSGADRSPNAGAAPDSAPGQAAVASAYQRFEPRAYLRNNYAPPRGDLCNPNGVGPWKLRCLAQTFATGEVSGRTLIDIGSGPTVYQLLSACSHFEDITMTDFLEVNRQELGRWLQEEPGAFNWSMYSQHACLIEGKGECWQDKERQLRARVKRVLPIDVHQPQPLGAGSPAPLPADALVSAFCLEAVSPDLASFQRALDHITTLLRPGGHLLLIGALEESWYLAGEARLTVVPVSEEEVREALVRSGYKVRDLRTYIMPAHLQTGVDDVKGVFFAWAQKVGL
# [3] = biological target: Histamine N-methyltransferase (Homo sapiens) (UniProt P50135); assay: as above; conditions: MTase-Glo luminescence, SAH detection, recombinant enzyme; measured here: HNMT inhibition potency
# Sequence of UniProt P50135 (P50135 whole entry, looked up): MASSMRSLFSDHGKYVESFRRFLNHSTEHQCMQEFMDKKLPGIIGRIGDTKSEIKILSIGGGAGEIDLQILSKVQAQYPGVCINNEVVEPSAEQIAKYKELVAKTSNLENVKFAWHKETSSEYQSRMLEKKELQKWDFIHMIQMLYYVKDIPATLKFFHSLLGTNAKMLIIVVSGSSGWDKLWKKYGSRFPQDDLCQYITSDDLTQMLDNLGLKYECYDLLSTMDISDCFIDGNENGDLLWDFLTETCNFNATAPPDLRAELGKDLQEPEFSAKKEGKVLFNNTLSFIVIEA
# [4] = qHTS drug screen for cell cycle checkpoint inhibitors in PARPi-resistant BRCA-mutant ovarian cancer cell lines. (AID 1963452); conditions: PEO1/OlaR viability, CellTiter-Glo luminescence, 96 h
# In short: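 PEO1, PEO4 and PEO1/OlaR ovarian cancer cells, 600 per well, exposed 96 h at 37C to a dilution series. Viability read by CellTiter-Glo luminescence, normalized to DMSO and empty wells; activity summarized as Z-AUC.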
# [5] = NCATS anti-infectives library activity on the primary C. elegans qHTS viability assay (AID 1745855); conditions: C. elegans worm area imaging
# In short: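 Viability read-out is GFP fluorescence of PE254-GFP-FLuc C. elegans, measured by laser cytometry (488 nm) at day 0, 3 and 7. Ten L1 worms per well were incubated 7 days at 21 °C with compounds and bacterial capsules in S medium.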
# [6] = qHTS for identification of novel therapeutic agents for treatment of microphthalmiaassociated transcription factor (MiT) renal cell carcinoma (RCC) (AID 1963991); conditions: CellTiter-Glo, 48 h; for z-score: stronger effect = lower value
# In short: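 Viability of three TFE3-fusion renal carcinoma lines measured by CellTiter-Glo after 48 h treatment with each of 1912 compounds at 11 concentrations. Responses scaled between DMSO (100%) and empty wells (0%) before curve fitting.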
# [7] = S16 Schwann cell PMP22 intronic element beta-lactamase assay (AID 624044); conditions: S16 rat Schwann cells, PMP22 element beta-lactamase FRET, 24 h; measured here: 460 nm blue channel; note: nearly all actives have a fitted effect of over 15% in size
# In short: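 Rat S16 Schwann cells with beta-Lac driven by a PMP22 intronic element, compound-treated 24 h at 37 °C. LiveBLAzer FRET B/G read: 460 nm normalized to potassium clavulanate vs DMSO; 535 nm FRET as viability; concentration-effect curves classified.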
# [8] = measured here: PEO1 parental viability
# [9] = day 7, measured here: worm number
# [10] = day 7, measured here: worm area, day 3
# [11] = day 7, measured here: worm number, day 3
# Tags give direction and shape of the fitted curve.
compound,measurement,setting,value
C#C[C@]1(O)CC[C@H]2[C@@H]3CC[C@H]4Cc5nc6nc7ccccc7n6cc5C[C@]4(C)[C@H]3CC[C@@]21C,IC50,[1],"24.1 µM [falling, partial curve, poor fit]"
same,IC50,[2],"24.1 µM [falling, partial curve]"
CCCN(CCC)[C@@H]1CCc2ccc3[nH]c(C#N)cc3c2C1,IC50,[3],"6.81 µM [falling, partial curve]"
Cc1[nH]c2ccc(Cl)cc2c1CCN(C)C,IC50,[3],"19.2 µM [falling, partial curve]"
C[C@@]12OC(=O)[C@]1([C@@H](O)[C@@H]1C=CCCC1)NC(=O)[C@@H]2CCCl,AC50,[4]; [8],"0.0977 µM [falling, full curve]"
same,AC50,[4]; measured here: PEO4 viability,"0.0309 µM [falling, full curve]"
COc1cc2c(cc1F)C(c1ccccc1Cl)=Nc1c(n[nH]c1C)N2,AC50,[4]; [8],"21.9 µM [falling, single point]"
same,AC50,[4]; measured here: PEO4 viability,"27.5 µM [falling, single point]"
COC(=O)[C@@]12OC[C@]34[C@H]([C@@H](O)[C@@H]1O)[C@@]1(C)CC(=O)C(O)=C(C)[C@@H]1C[C@H]3OC(=O)[C@H](OC(=O)/C=C(\C)C(C)C)[C@@H]24,AC50,[4]; [8],"0.0347 µM [falling, full curve]"
same,AC50,[4]; measured here: PEO4 viability,"0.0275 µM [falling, full curve]"
Cc1sc2c(c1C)C(c1ccc(Cl)cc1)=N[C@@H](CC(=O)OC(C)(C)C)c1nnc(C)n1-2,AC50,[5]; [9],"1.45 µM [falling, partial curve, poor fit]"
same,AC50,[5]; [10],"10.3 µM [falling, partial curve]"
same,AC50,[5]; [11],"1.03 µM [falling, full curve, poor fit]"
same,z-score,"[6]; TFE3-RCC UOK109 viability, measured here: UOK109 Z-AUC",-1.78
same,z-score,"[6]; TFE3-RCC viability, measured here: UOK124 Z-AUC",-0.0542
same,AC50,"[6]; TFE3-RCC viability, measured here: UOK124 cell viability","8.33 µM [falling, partial curve]"
same,z-score,"[6]; TFE3-RCC viability, measured here: UOK145 Z-AUC",-0.727
same,AC50,"[6]; TFE3-RCC viability, measured here: UOK145 cell viability","13.2 µM [falling, partial curve]"
COc1ccc(C(=O)c2c(C)n(CCN3CCOCC3)c3ccccc23)cc1,AC50,[4]; [8],"15.5 µM [falling, partial curve]"
same,AC50,[4]; measured here: PEO4 viability,"7.76 µM [falling, partial curve]"
C[C@@H]1CC[C@@]2(OC1)O[C@H]1C[C@H]3[C@@H]4CC=C5C[C@@H](O[C@@H]6O[C@H](CO)[C@@H](O[C@@H]7O[C@@H](C)[C@H](O)[C@@H](O)[C@H]7O)[C@H](O)[C@H]6O[C@@H]6O[C@@H](C)[C@H](O)[C@@H](O)[C@H]6O)CC[C@]5(C)[C@H]4CC[C@]3(C)[C@H]1[C@@H]2C,AC50,[4]; [8],"3.89 µM [falling, full curve]"
same,AC50,[4]; measured here: PEO4 viability,"3.89 µM [falling, full curve]"
NC1=NC(=O)N2CC12 (centres undefined),AC50,[4]; [8],"2.75 µM [rising, partial curve, poor fit]"
CC(=O)OC1C[C@H](O[C@@H]2C(O)C[C@H](O[C@@H]3C(O)C[C@@H](OC4CC[C@]5(C)C(CCC6C5CC(O)[C@@]5(C)C(C7=CC(=O)OC7)CC[C@@]65O)C4)OC3C)OC2C)O[C@H](C)[C@H]1O[C@H]1OC(CO)C(O)C(O)C1O (some centres undefined),AC50,[7],"17.8 µM [falling, partial curve, poor fit]"
same,AC50,[5]; [9],"23 µM [falling, single point]"
CC[C@H]1/C=C\C=C/C[C@@H](C)[C@H](O)[C@@](C)(O)C(=O)[C@@H](C)[C@H](O)[C@@H](C)C(=O)[C@@H](C)[C@H](O)[C@@H](C)/C=C\C(=O)O[C@@H]2[C@H](C)[C@H](CC1)O[C@]1(CC[C@H](C)[C@H](C[C@@H](C)O)O1)[C@H]2C,AC50,[5]; [10],"6.48 µM [falling, full curve, poor fit]"
same,AC50,[5]; [11],"2.58 µM [falling, partial curve, poor fit]"
same,AC50,[4]; [8],"0.0347 µM [falling, full curve, poor fit]"
same,AC50,[4]; measured here: PEO4 viability,"0.0309 µM [falling, full curve]"
CC(NC(C)(C)C)C(=O)c1cccc(Cl)c1 (centres undefined),AC50,[4]; [8],"3.09 µM [falling, partial curve, poor fit]"
Cc1ncc(OC[C@@]2(c3cccc(F)c3)C[C@H]2C(=O)Nc2ccc(F)cn2)c(C)n1,AC50,[4]; measured here: PEO4 viability,"1.95 µM [rising, partial curve, poor fit]"
Nc1ncnc2c1ccn2[C@@H]1O[C@H](CO)[C@@H](O)[C@H]1O,AC50,[5]; [9],"9.16 µM [falling, partial curve, poor fit]"
same,AC50,[5]; [10],"29 µM [falling, single point]"
same,AC50,[5]; [11],"16.3 µM [falling, partial curve]"
C[C@H]1CCC/C=C/C2C[C@H](O)C[C@H]2[C@H](O)/C=C/C(=O)O1 (some centres undefined),AC50,[5]; [9],"0.0082 µM [falling, full curve, poor fit]"
same,AC50,[4]; [8],"0.245 µM [falling, full curve]"
same,AC50,[4]; measured here: PEO4 viability,"0.174 µM [falling, full curve]"
O=C(CBr)N1CC([N+](=O)[O-])([N+](=O)[O-])C1,AC50,[4]; [8],"0.0071 µM [falling, full curve, poor fit]"
same,AC50,[4]; measured here: PEO4 viability,"0.0112 µM [falling, full curve, poor fit]"
